# From PubChem BioAssay AID488969 (Vanderbilt High Throughput Screening Facility, 2010)
# In all, about 110,000 compounds were measured (“z-score”: median about -0.1, highest 2% from about 2 on). The list shows a part of the results. Activity calls are given as the source filed them.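 Rule for the calls: active = z-score in the third read window above 3 or below -3; inactive = the rest.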
# Molecular target: Metabotropic glutamate receptor 8 (Rattus norvegicus) (UniProt P70579)
# Experiment: rat mGluR8 modulators via GIRK flux, primary screen, cell-based, thallium flux, HTS (AID 488969)
# Settings: HEK293 rat mGluR8, GIRK (G protein-gated inwardly rectifying potassium channel) thallium flux, FluoZin2; at 10 µM; stronger effect = higher value; submaximal glutamate (EC20) added with thallium
# UniProt P70579, sequence (P70579 whole entry, looked up): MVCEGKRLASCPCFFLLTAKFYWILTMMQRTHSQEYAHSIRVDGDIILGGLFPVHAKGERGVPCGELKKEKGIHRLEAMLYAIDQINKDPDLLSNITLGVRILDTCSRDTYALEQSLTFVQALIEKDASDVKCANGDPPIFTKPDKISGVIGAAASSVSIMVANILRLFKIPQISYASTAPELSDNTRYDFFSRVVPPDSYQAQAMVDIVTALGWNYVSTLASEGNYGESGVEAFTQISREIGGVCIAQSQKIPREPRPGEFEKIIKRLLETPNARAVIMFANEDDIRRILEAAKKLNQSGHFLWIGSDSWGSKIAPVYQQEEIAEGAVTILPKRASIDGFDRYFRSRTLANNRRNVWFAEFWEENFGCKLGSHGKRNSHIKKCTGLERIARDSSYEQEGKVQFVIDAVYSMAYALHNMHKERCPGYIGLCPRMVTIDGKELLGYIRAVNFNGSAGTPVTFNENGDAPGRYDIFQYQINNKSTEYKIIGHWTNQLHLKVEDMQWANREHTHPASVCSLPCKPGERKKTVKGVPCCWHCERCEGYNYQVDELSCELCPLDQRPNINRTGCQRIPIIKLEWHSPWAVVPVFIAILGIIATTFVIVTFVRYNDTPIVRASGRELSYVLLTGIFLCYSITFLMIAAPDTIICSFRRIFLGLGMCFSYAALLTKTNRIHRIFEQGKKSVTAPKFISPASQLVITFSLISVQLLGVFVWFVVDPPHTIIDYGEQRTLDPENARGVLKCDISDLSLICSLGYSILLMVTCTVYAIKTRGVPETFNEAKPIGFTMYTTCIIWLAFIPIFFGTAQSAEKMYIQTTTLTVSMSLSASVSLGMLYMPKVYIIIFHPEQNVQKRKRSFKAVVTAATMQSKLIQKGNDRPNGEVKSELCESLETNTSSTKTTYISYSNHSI
row,Structure (SMILES),z-score
1,O=C(NC(=S)Nc1ccc(N2CCCC2)cc1)c1ccccc1[N+](=O)[O-],0.0592
2,CCn1cc(C(=O)OCc2ccccc2)c(=O)c2ccc(C)nc21,-0.639
3,COc1ccc(C(c2nnnn2C2CCCC2)N2CCN(c3ccccc3)CC2)cc1 (stereo not given),-0.12
4,COC(=O)c1cc(C(=O)OCC(=O)Nc2ccccc2OC(F)F)cc([N+](=O)[O-])c1,-0.452
5,CN(C)/C=N/c1c(C#N)cnn1-c1ccccc1,-0.282
6,Cc1nc(N2CCCCC2)c2ccsc2n1,-0.225
7,O=C(OCCN1C(=O)c2ccccc2C1=O)c1cc(S(=O)(=O)N2CCOCC2)ccc1Cl,-0.0573
8,Cc1ccc(C)c(NC(=O)CN2C(=O)CNC2=O)c1,-0.231
9,CCOC(=O)c1nn(-c2cccc(Cl)c2)c2nc(CC(C)C)c(C#N)c(=O)n12,-0.17
10,S=C(Nc1ccc2c(c1)OCO2)NC1CCN(Cc2ccccc2)CC1,0.66
11,O=C(Cn1c(=O)c(=O)n(Cc2ccccc2)c2ccc(Cl)cc21)Nc1cccc(F)c1,-0.38
12,O=C1CC(c2ccccc2)CC(O)=C1C=NCCCO (stereo not given),0.0641
13,C=CCNC(=O)c1ccccc1NS(=O)(=O)c1ccccc1,0.059
14,Cc1ccc(C(=O)NCc2ccccn2)c(Cl)c1,-0.0826
15,COn1c(-n2nc(C)cc2C)nc2ccccc2c1=O,0.141
16,CCOC(=O)C(NCc1ccc2c(c1)OCO2)(NC(=O)c1ccccc1)C(F)(F)F (stereo not given),-0.325
17,COC(=O)c1nnn(-c2nonc2N)c1CSCCO,0.0675
18,COc1cc(/C=N/NC(=O)/C(=C\c2ccc([N+](=O)[O-])cc2)NC(=O)c2ccccc2)cc(OC)c1O,0.215
19,Cc1ccc(OCC(=O)N/N=C\c2ccco2)c(C)c1,-0.0482
20,CCCn1cc(NC(=O)c2cc3n(n2)C(C(F)(F)F)CC(c2ccccc2)N3)cn1 (stereo not given),0.179
21,COc1ccc(CN(C(=O)c2ccccc2OC)C2CCS(=O)(=O)C2)cc1 (stereo not given),-0.139
22,c1ccc2[nH]c(CN3CCOCC3)nc2c1,-0.119
23,CCC(c1nnnn1C(C)(C)C)N(Cc1cc2cccc(C)c2n2nnnc12)C1CCCC1 (stereo not given),0.0383

row,Structure (SMILES),z-score
1,Cc1nc2c(C)cccc2cc1C(=O)N/N=C/c1ccc(O)cc1,-0.281
2,NC(=O)C(c1ccccc1)C1CCCC1 (stereo not given),0.327
3,COc1nc(N/N=C/c2ccc(-c3ccccc3[N+](=O)[O-])o2)nc(N2CCOCC2)n1,-0.309
4,CCc1cc2c(NCCC(=O)O)nc(C)nc2s1,-0.427
5,CCCN1C(=O)/C(=C\C=C2/C=CN(CC)c3ccccc32)SC1=S,1.5
6,Cn1c(=O)c2c(nc(Oc3ccc(-c4ccccc4)cc3)n2C)n(C)c1=O,0.475
7,Cc1ccc(NC(=O)Nc2nnc(CSCCOc3ccc(Cl)cc3)s2)cc1,0.0698
8,Cc1ccc(F)cc1NC(=O)C1CCCN(c2ncccn2)C1 (stereo not given),-0.193
9,CCOC(=O)Cc1nn(C)c(=O)c2ccccc12,0.371
10,COC(=O)[C@H](C)NC(=O)NCc1ccccc1F,0.611
11,Cc1cccn2c(=O)c3cc(C#N)c(=N)n(CC4CCCO4)c3nc12 (stereo not given),-0.508
12,Cc1ccc(C(=O)C[n+]2cc(Br)cc(Br)c2)cc1[N+](=O)[O-],-0.127
13,N#C/C(=C\c1ccco1)C(=O)NCC1CCCO1 (stereo not given),-0.0138
14,CCOC(=O)c1c(CC(C)C)csc1NC(=O)C(C)C,-0.224
15,Cc1ccc2c(c1)NC(=O)C(CC(=O)NCCCN1CCN(c3cc(C)ccc3C)CC1)O2 (stereo not given),-0.26
16,O=C(NC1(C(F)(F)F)NC(=O)N(c2ccc(F)cc2)C1=O)c1ccncc1 (stereo not given),0.0159
17,CCOC(=O)CNC(=O)CSc1ncnc2c1nnn2-c1ccc(F)cc1,-0.262
18,Cc1cc(C)n(-c2nc(NCC(C)O)c3c4c(sc3n2)COC(C)(C)C4)n1 (stereo not given),-0.604
19,O=C(NC1CC2CCC(C1)N2C(=O)NCc1ccccc1)C1CC1 (stereo not given),0.299
20,COc1ccccc1N1CCN(S(=O)(=O)c2cccc(F)c2)CC1,-0.494
21,O=C(CN1CCN(CCN2C(=O)c3cccc4cccc(c34)C2=O)CC1)c1ccc(F)cc1,-0.49
22,COC(=O)C(NC(=O)c1ccccc1)=C1CCCCC1,-0.971
23,Cc1ccccc1N=C1N=C(N)c2ccccc21,-0.356

row,Structure (SMILES),z-score
1,COc1ccc(Cc2nnc(NC(=O)CSc3ccccc3)s2)cc1OC,0.209
2,CCCN(CCC)C(=O)CC(c1ccccc1)c1cc(Br)ccc1O (stereo not given),-0.0728
3,CN(C)/C=N/c1sccc1C(N)=O,-0.0165
4,COCCNC(=O)CCCC(=O)NCCOC,-0.0363
5,CC1(C(=O)O)CCC(C(=O)Nc2ccccc2O)C1(C)C (stereo not given),-0.0754
6,O=C(C1CCC(=O)N1Cc1ccccc1Cl)N1CCN(c2cccc(Cl)c2)CC1 (stereo not given),-0.174
7,O=C1CC(c2ccccc2)CC(O)=C1C=NCc1ccco1 (stereo not given),0.412
8,COc1ccc(NC(=O)COC(=O)C2CCCCC2)c([N+](=O)[O-])c1,0.159
9,Cc1ccc(C)c(S(=O)(=O)N/N=C/c2cccnc2)c1,0.433
10,O=C1C(c2ccncc2)=C(O)c2ccccc21,0.157
11,O=C(c1cc(C2CC2)on1)N1CCN(c2ccc(F)cc2)CC1,1.09
12,COc1ccc(C/C(C)=N/NC(=S)Nc2ccccc2)cc1,active: 5.19
13,Cc1ccc(NC(=O)Cc2c(Cl)cccc2Cl)cc1S(=O)(=O)N(C)C,1
14,COC(=O)COc1ccc(S(=O)(=O)NCc2ccncc2)cc1,0.037
15,CC(Sc1nnc2ccccn12)C(=O)N1CCc2ccccc2C1 (stereo not given),-0.0936
16,NS(=O)(=O)c1ccc(NS(=O)(=O)c2ccc(NC(=O)c3ccc(-c4ccccc4)cc3)cc2)cc1,-0.214
17,O=[N+]([O-])c1ccc(O)c(NC(=S)Nc2ccccc2)c1,-0.478
18,Cn1cc(C(=O)N2CCc3ccccc32)cn1,0.708
19,CCCOC(=O)/C(C)=N\NC(=O)c1ccco1,-0.526
20,CCCC(O)(CCC)C(=O)NN(C(=O)CCl)c1ccccc1,-0.215
21,CC(=O)c1cc(C#N)c(Oc2ccc(F)cc2)nc1C,-0.0776
22,Cc1ccc(CNC(=O)CCC(=O)c2cccs2)cc1,-0.0672
23,CC(Sc1nncn1C)C(=O)Nc1nnc(-c2ccccc2)s1 (stereo not given),0.184

row,Structure (SMILES),z-score
1,COCCCNC(=O)c1cccc(OC)c1OC,0.544
2,N/C(Cn1nnc(-c2ccccc2)n1)=N\O,-0.0839
3,CCN(CC)S(=O)(=O)c1ccc2oc(C(=O)N3CCOCC3)c(C)c2c1,0.216
4,Cc1cccc(-c2nnc(SCCOc3ccc4c(C)cc(=O)oc4c3)o2)c1,-0.0343
5,CC(/C=C/c1ccccc1)=N\NC(=O)Cn1nc(C)cc1C,0.481
6,CCCCC(=O)NC1(C(F)(F)F)C(=O)Nc2c1c(=O)[nH]c(=O)n2Cc1ccco1 (stereo not given),0.27
7,O=[N+]([O-])c1cc(/C=N/OCc2c(Cl)cccc2Cl)ccc1N1CCOCC1,0.476
8,CCCCOc1ccc(C2CC(=O)NC2=O)cc1 (stereo not given),0.162
9,COc1cc(/C=C(\C#N)C(=O)Nc2ccc(SC(F)F)cc2)cc(OC)c1OC,-0.384
10,COc1ccc(N2CCN(S(=O)(=O)Cc3ccccc3)CC2)cc1,0.217
11,O=S(=O)(Cc1ccccc1)N1CCN(C/C=C/c2ccccc2)CC1,0.335
12,CC(C)(C)C(=O)NC(=S)Nc1ccccc1F,0.291
13,CSC(=NCc1ccc(F)cc1)NS(=O)(=O)c1cccs1,-0.639
14,CCOC(=O)c1ccc(CNC(=O)C2CCCCC2C(=O)OCC(F)(F)F)o1 (stereo not given),-0.244
15,O=C(N/N=C\c1cc(Br)c(Br)o1)c1cncc(Br)c1,active: 9.73
16,O=C(Nc1ccc2oc(-c3ccc4ccccc4c3)nc2c1)c1ccc2c(c1)OCCO2,0.784
17,Cc1cc(C)cc(OC(=O)N2CCOCC2)c1,0.211
18,COc1cccc(-n2c(SCc3c(C)noc3C)nnc2-c2cccc(S(=O)(=O)N(C)C)c2)c1,-0.0855
19,Cc1noc(C)c1S(=O)(=O)N1CCC(C(=O)Nc2ccccn2)CC1,0.333
20,CCS(=O)(=O)N1CCC(C(=O)NCc2ccc(F)cc2Cl)CC1,-0.101
21,Nc1nc(-c2ccccc2)nn1C(=O)Cc1ccccc1,-0.127
22,O=C(c1cncc(Br)c1)N1CCc2ccccc2C1,0.292
23,Cc1ccc(NC(=O)Cn2nnc(-c3ccccc3NC(=O)c3cccs3)n2)cc1,-0.57

row,Structure (SMILES),z-score
1,CCc1nc(C#N)c(N2CCOCC2)o1,-0.283
2,C(=N\Nc1ncnc2sc3c(c12)CCC3)/c1cccs1,-0.382
3,O=c1cc2[nH]c3ccccc3c(=O)n2nc1-c1ccccc1,-0.202
4,N#Cc1nc(-c2ccco2)oc1NCCCn1ccnc1,1.15
5,O=C(CSCc1ccccc1)Nc1ccc(F)c(F)c1,0.349
6,Fc1ccc(-n2c(-c3cccs3)nc3nc4ccccc4nc32)cc1,-0.4
7,O=C(NCCCN1CCCC1=O)c1cncc(Br)c1,-0.00979
8,Cn1nc(C(F)(F)F)c(C(=O)Nc2ccc(C(F)(F)F)cc2)c1Cl,0.147
9,COc1ccc(/C=C2\C(=O)NCC(=O)N2Cc2ccccc2)cc1,-0.0604
10,O=C(CSc1nnnn1-c1ccccc1Cl)Nc1ccc2c(c1)OCCO2,0.438
11,CCN(CC)S(=O)(=O)c1ccc(N=NC2=C(O)CCCC2=O)cc1,-0.199
12,CCOCC(O)CS(=O)Cc1ccccc1 (stereo not given),0.448
13,Cn1c(=NC(=O)C2CC2)sc2cc(F)cc(F)c21,-0.108
14,O=c1oc2ccccc2cc1-c1csc(Cc2nc(-c3ccc(Br)cc3)cs2)n1,1.17
15,CCC(=O)c1ccc(CCCCCC(=O)O)s1,-0.194
16,Cc1ccc(/C=C/C(=O)C2C(=O)c3ccccc3C2=O)cc1,0.871
17,COc1ccc(/C=N/Nc2nc(C)c([N+](=O)[O-])c(N(C)c3ccccc3)n2)cc1OC,-0.369
18,COc1ccccc1NC(=S)NC(=O)CCCOc1ccc(Cl)cc1Cl,-0.0968
19,Cc1ccc(/C=N/NC(=O)c2cccs2)cc1[N+](=O)[O-],-0.152
20,CCn1c(SCc2cccc(C)c2)nnc1-c1ccc(C)cc1,-0.617
21,Cc1ccccc1-n1c(SCC(=O)N/N=C/c2c(C)nn(-c3ccccc3)c2C)nc2ccccc2c1=O,-0.599
22,O=C(CCc1nc(-c2ccccc2F)no1)NC1CCCCCC1,-0.464
23,CCOC(=O)C1=C(C)NC(C)=C(C(=O)OCC)C1C(=O)OCC(=O)N1c2ccccc2CC1C (stereo not given),2.55
